Sequences with one replicate were seen in a single cluster, so their values are uncertain.
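Also: ATP exposure 15 min at 22 °C before imaging.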

This data set concerns ATP. Briefly: switch fluorescence ratio, 500 uM ATP over buffer (Cy3 cluster intensity, sum of 5 cycles each) (fold (ratio)); higher = stronger signal-on switching upon ATP binding; sequences stand for … in TCGTCGGCAGCGTCAGATGTGTATAAGAGACAGTTTTTTTTTTTTTTTTTTTTTTTTT…TC. The settings on record: aptamer strand: ATP DNA aptamer (quencher-CACCTGGGGGAGTATTGCGGAGGAAGG + anchor), 100 nM annealed; ATP concentration: 500 uM; one replicate. An outline of the steps: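 The quencher-labelled ATP aptamer, at 100 nM, was annealed to Cy3-labelled switching-strand clusters on a modified Illumina MiSeq flow-cell. The clusters were imaged in selection buffer, then after 15 min with 500 uM ATP at 22 °C, and this buffer/ATP cycle ran five times with NaOH stripping and re-annealing between runs. Per-cluster fluorescence ratios, summed target-cycle over summed buffer-cycle Cy3 intensity, were averaged per switch-domain sequence. Clusters outside 100-1000 RFU were excluded.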
As for GCTAGGCTTT, the switch fluorescence ratio worked out at 0.993.

Regarding TCGTATATAA, the switch fluorescence ratio is 1.04.

As to GGGTGGAGTA, the switch fluorescence ratio was determined as 0.961.

For CTAGTATTTA, the switch fluorescence ratio was 0.983.

With TGTTATAATA, the switch fluorescence ratio worked out at 1.04.

In the case of AGGGTTTGTA, the switch fluorescence ratio was 0.93.

In the case of GGGTCAGTAA, the switch fluorescence ratio is 1.02.

Consider CCCTCTATTG, for which the switch fluorescence ratio was 1.06.

Consider TTTCAGATTT, for which the switch fluorescence ratio worked out at 1.

Consider CCTGAATCCT, for which the switch fluorescence ratio is 1.03.

With CCCTTGTGCT, the switch fluorescence ratio was 1.01.

Consider GTCAAGAAAT, for which the switch fluorescence ratio worked out at 1.03.

For the sequence TTTTACCTCA, the switch fluorescence ratio was 0.984.

Turning to GACTTGCCCG, the switch fluorescence ratio came out at 1.06.

On to CAGGAGGCCT, for which the switch fluorescence ratio is 1.01.

TTAAGTGATA: the switch fluorescence ratio stood at 1.03.

With CACATATAT, the switch fluorescence ratio came to 1.06.

Regarding CCAGTATCAT, the switch fluorescence ratio was 0.992.

Take TTACAGAGT: the switch fluorescence ratio was determined as 0.955.

For CCTGTCTTGC, the switch fluorescence ratio turned out to be 1.03.

In the case of GGCCGATCGT, the switch fluorescence ratio is 1.01.

On to GATTCGATGG, for which the switch fluorescence ratio was determined as 0.996.

Take AGTGCCTTT: the switch fluorescence ratio was determined as 0.996.

Turning to GTCGCACTCC, the switch fluorescence ratio came to 1.83.

Take TACTCGTTT: the switch fluorescence ratio is 0.982.

GTAAAAAATT: the switch fluorescence ratio was found to be 0.963.

As to GTCGGGCTGG, the switch fluorescence ratio amounted to 0.98.

Take AGTTGCCTGG: the switch fluorescence ratio is 1.01.

With AATTGGCGGG, the switch fluorescence ratio is 1.01.

With TTGGCTATAT, the switch fluorescence ratio worked out at 0.976.

Consider TATGACTCAT, for which the switch fluorescence ratio was 0.966.

TGCAAAGGCA: the switch fluorescence ratio came out at 0.982.

For TTGGGAATCT, the switch fluorescence ratio amounted to 1.

Consider CCGACCATCA, for which the switch fluorescence ratio came out at 1.99.

Consider TGCAAAACCG, for which the switch fluorescence ratio worked out at 1.05.

Take GATAACGGTT: the switch fluorescence ratio was 1.02.

As for AGGGATACAC, the switch fluorescence ratio amounted to 1.1.

Turning to CGTGCGGCCA, the switch fluorescence ratio came to 0.99.

As for ATTCTGAATA, the switch fluorescence ratio came to 0.985.

As for GTCTGAATA, the switch fluorescence ratio turned out to be 0.981.

Regarding AACGGAAGAA, the switch fluorescence ratio came out at 1.1.

CCTTATGGAG: the switch fluorescence ratio was 1.04.

As to CTGATTAACG, the switch fluorescence ratio was 0.995.

On to TTGGGGAATC, for which the switch fluorescence ratio is 0.933.

GAGGGAACGC: the switch fluorescence ratio is 0.944.

For the sequence TGTCATGCTG, the switch fluorescence ratio amounted to 0.988.

Take CGATTGTGTT: the switch fluorescence ratio amounted to 0.973.

Consider TAAGAGTCCA, for which the switch fluorescence ratio turned out to be 1.01.

With TCGCTGTGGG, the switch fluorescence ratio was 1.02.

Turning to CTAGGTTTTC, the switch fluorescence ratio is 0.999.

As for CAATAAAAAA, the switch fluorescence ratio came to 0.955.

In the case of TAGACATAGT, the switch fluorescence ratio is 0.954.

For the sequence ATGTCATCAC, the switch fluorescence ratio was determined as 1.1.

For ACAATGGGA, the switch fluorescence ratio stood at 0.938.

Turning to TCATGGCCCT, the switch fluorescence ratio amounted to 1.01.

For the sequence GTTCTAGTCA, the switch fluorescence ratio is 1.01.

As for TTGAAAAGTC, the switch fluorescence ratio turned out to be 1.05.

With AGCGTATCC, the switch fluorescence ratio was found to be 1.01.

In the case of CCCATAGGCT, the switch fluorescence ratio was 1.02.

On to AGGTAAACA, for which the switch fluorescence ratio is 0.941.

For GTTGTCACTT, the switch fluorescence ratio was found to be 0.962.

For the sequence TGCTTCGGG, the switch fluorescence ratio came out at 1.02.

Regarding GCACCTTACT, the switch fluorescence ratio came out at 1.73.

For ATGATTTTTG, the switch fluorescence ratio was found to be 1.01.

On to TTTGTGTTT, for which the switch fluorescence ratio worked out at 0.996.

CTGTGGTTTC: the switch fluorescence ratio amounted to 1.01.

Take GGGTTGAACA: the switch fluorescence ratio is 0.932.

As to AGTTGGGACG, the switch fluorescence ratio amounted to 0.94.

In the case of GCGCATCTGC, the switch fluorescence ratio is 1.09.

In the case of CTTAGAGATG, the switch fluorescence ratio stood at 0.993.

On to TAAAGTAGCA, for which the switch fluorescence ratio was 0.996.

As to CGTGGCCATC, the switch fluorescence ratio came to 1.07.

As for ACCTAGGTCG, the switch fluorescence ratio was 0.986.

With TTTGCATTTC, the switch fluorescence ratio was found to be 1.1.

Regarding ACGGGATATG, the switch fluorescence ratio was determined as 1.09.

As for TAACCAGATG, the switch fluorescence ratio worked out at 1.11.

Regarding ATAGGTCACG, the switch fluorescence ratio came to 1.02.

With CGGCGGAC, the switch fluorescence ratio amounted to 1.26.

For GGGGACGCGG, the switch fluorescence ratio is 1.01.

As to TTACTCTATG, the switch fluorescence ratio was determined as 1.06.

Consider GTTAAGAGCT, for which the switch fluorescence ratio amounted to 1.01.

In the case of ATGTAATGGG, the switch fluorescence ratio is 1.03.

Turning to GGCCAAGGT, the switch fluorescence ratio is 0.992.

As for GCAATAGATT, the switch fluorescence ratio was determined as 1.01.

For TGCCCATCTT, the switch fluorescence ratio was 0.982.

As to CCGCCATTTG, the switch fluorescence ratio worked out at 1.81.

For GCTAGCACCT, the switch fluorescence ratio was 1.09.

On to ATTGTGTATG, for which the switch fluorescence ratio amounted to 0.985.

In the case of CTAGGGTGTA, the switch fluorescence ratio came to 1.05.

In the case of CAATTTTTAC, the switch fluorescence ratio was found to be 1.03.

With TATTTCCTG, the switch fluorescence ratio worked out at 0.975.

Turning to ATTAACTGTA, the switch fluorescence ratio was 1.18.

In the case of CGGGCAAATA, the switch fluorescence ratio came out at 1.17.

For GGGTTCACGC, the switch fluorescence ratio was 1.03.

For AAATGACATC, the switch fluorescence ratio is 1.01.

On to CTCTGGACGC, for which the switch fluorescence ratio was determined as 1.17.

For TGTGGTTTGG, the switch fluorescence ratio came to 0.992.

In the case of TCCGGCCACT, the switch fluorescence ratio stood at 1.06.

For the sequence GGTTACAACT, the switch fluorescence ratio came to 0.964.

Regarding CGCGGCCTAC, the switch fluorescence ratio came out at 2.67.

ACTAGCTGG: the switch fluorescence ratio is 1.03.

With ACCTAAAAGA, the switch fluorescence ratio came to 1.03.

In the case of TATAGTTAGG, the switch fluorescence ratio came out at 1.01.

On to GAGGAAGTCA, for which the switch fluorescence ratio was 1.01.

Take CACTGTCACG: the switch fluorescence ratio amounted to 1.25.

Consider ACTGCTTGAG, for which the switch fluorescence ratio was 1.01.

With CCGATGCGAG, the switch fluorescence ratio turned out to be 4.64.

Regarding CTTTTGTCCG, the switch fluorescence ratio came to 1.06.

Regarding TTTCAAGGAG, the switch fluorescence ratio is 1.06.

Take TATAACGGGT: the switch fluorescence ratio was found to be 1.04.

For CTTACCAGAT, the switch fluorescence ratio was determined as 1.02.

TCTTTAGGTC: the switch fluorescence ratio was 0.972.

Regarding TTTAGGCTAT, the switch fluorescence ratio is 1.03.

As for AATTCTATC, the switch fluorescence ratio is 1.01.

Take GTTTTTGC: the switch fluorescence ratio was found to be 0.909.

As for TTGTAACACT, the switch fluorescence ratio worked out at 0.989.

With CCATACCTCA, the switch fluorescence ratio was determined as 1.05.

Regarding TTGCTCGTTT, the switch fluorescence ratio turned out to be 1.07.

For the sequence CATGAGCACT, the switch fluorescence ratio is 1.13.

On to CGGCGTTAGT, for which the switch fluorescence ratio came out at 0.984.

The values are drawn from the supplement of paper PMC10126150.
